The results in this text go back to the supplement of paper PMC3334620.

Whole data set: some 33,000 sequences, median “E-score (-0.5 to 0.5)” near -0.036, cut for the highest 2% near 0.37. The list shows a part of the results.

This experiment has as its target T1, Yer064c (UniProt P40041).
T1 sequence: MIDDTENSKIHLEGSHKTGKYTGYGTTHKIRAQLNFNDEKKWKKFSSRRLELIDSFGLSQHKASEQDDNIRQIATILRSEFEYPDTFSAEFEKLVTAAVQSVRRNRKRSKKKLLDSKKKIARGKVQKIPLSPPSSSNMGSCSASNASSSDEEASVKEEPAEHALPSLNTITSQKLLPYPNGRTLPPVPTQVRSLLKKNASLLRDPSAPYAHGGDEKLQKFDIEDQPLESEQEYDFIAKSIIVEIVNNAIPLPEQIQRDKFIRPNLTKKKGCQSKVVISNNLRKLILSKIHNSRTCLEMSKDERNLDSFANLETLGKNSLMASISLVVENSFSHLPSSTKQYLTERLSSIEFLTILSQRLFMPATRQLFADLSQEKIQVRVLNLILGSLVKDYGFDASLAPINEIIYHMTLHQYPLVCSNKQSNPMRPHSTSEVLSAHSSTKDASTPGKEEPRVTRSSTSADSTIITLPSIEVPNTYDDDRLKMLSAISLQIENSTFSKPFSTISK
As to the kind of experiment: PBM E-score (8-mer binding enrichment) (E-score (-0.5 to 0.5)); higher = stronger / more preferred TF binding; most listed sequences are background and not binding sites. As to conditions: protein concentration: 200 nM; construct: GST-full length. The gist of the method:
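Full-length yeast transcription factors or their DNA-binding domains, GST-tagged and expressed with PURExpress, were applied at about 100-200 nM to universal all-10-mer Agilent arrays. These arrays had been made double-stranded by primer extension on fresh or once-stripped slides. Detection used fluorescent anti-GST, normalisation used masliner, and E-scores for ungapped eight-base words pooled with reverse complements came from the Universal PBM Analysis Suite.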
Take ATGCCAGA: the “PBM E-score” value is -0.0495.

In the case of GCTTCCAC, the “PBM E-score” value was -0.26.

On to AGTTGGCC, for which the “PBM E-score” value is -0.0513.

As for CATTCAAC, the “PBM E-score” value is 0.0337.

With ATTAGATG, the “PBM E-score” value was 0.209.

Consider TTAAAGAA, for which the “PBM E-score” value came out at 0.163.

Turning to TAAGGGAA, the “PBM E-score” value is -0.114.

Take CATCCGGC: the “PBM E-score” value is -0.0312.

In the case of CCTCGGCC, the “PBM E-score” value was -0.254.

Regarding ACACCCAC, the “PBM E-score” value stood at 0.173.

On to CGTTATAC, for which the “PBM E-score” value is -0.0567.

Consider AGTAACTA, for which the “PBM E-score” value came out at 0.13.

As for CAAATAAG, the “PBM E-score” value is -0.106.

Regarding AGAACCGC, the “PBM E-score” value came out at 0.00146.

As to AGACACTC, the “PBM E-score” value was 0.0733.

Take CTTAGTCC: the “PBM E-score” value worked out at 0.37.

Take TCACTAGA: the “PBM E-score” value worked out at 0.178.

In the case of CGTGTGGA, the “PBM E-score” value is -0.182.

Consider TACCGCTA, for which the “PBM E-score” value was -0.042.

TAGCCGAA: the “PBM E-score” value is -0.146.

For the sequence CAGTAATG, the “PBM E-score” value is 0.0306.

Take AACCCGTC: the “PBM E-score” value is -0.26.

With GCAGTAAC, the “PBM E-score” value was -0.0264.

Turning to GTCGCCGA, the “PBM E-score” value stood at 0.038.

With ATACTCTA, the “PBM E-score” value was -0.0299.

In the case of GAGACACA, the “PBM E-score” value is 0.288.

Take AAAAACTA: the “PBM E-score” value came to 0.0388.

On to ACTTCAAC, for which the “PBM E-score” value was determined as 0.148.

As to AGCGACAG, the “PBM E-score” value was -0.0959.

As to AGCATGGA, the “PBM E-score” value was 0.0438.

In the case of CAAAATAG, the “PBM E-score” value is -0.15.

For AAAAGTCT, the “PBM E-score” value was determined as 0.0759.

Take CATCAAGA: the “PBM E-score” value is 0.155.

Consider AACGTAAC, for which the “PBM E-score” value is -0.0565.

In the case of TGAATACA, the “PBM E-score” value came out at 0.158.

Turning to CAGACCTC, the “PBM E-score” value is -0.0957.

Turning to ACTCCCTG, the “PBM E-score” value was 0.19.

Take GGGGGCAA: the “PBM E-score” value was -0.298.

Consider ATATATCG, for which the “PBM E-score” value came out at 0.0218.

For AAGTCGTA, the “PBM E-score” value was determined as 0.328.

AGTCAACA: the “PBM E-score” value amounted to 0.441.

Take CAGGGCAA: the “PBM E-score” value is -0.259.

As for GTACAATA, the “PBM E-score” value was 0.138.

Take TACGGCGA: the “PBM E-score” value is -0.108.

On to AGAGCATC, for which the “PBM E-score” value is -0.249.

As to GGCGGCGA, the “PBM E-score” value is -0.0567.

As to CCTATAAC, the “PBM E-score” value was -0.0802.

On to CCGAGTAC, for which the “PBM E-score” value is 0.0527.

Consider ACTTGGCT, for which the “PBM E-score” value turned out to be 0.0244.

For AGCTATTC, the “PBM E-score” value was -0.234.

With CACCCGAG, the “PBM E-score” value was -0.0236.

CTAACAGA: the “PBM E-score” value came to 0.0844.

In the case of GGCGCTCA, the “PBM E-score” value is -0.243.

GATCTCCC: the “PBM E-score” value is -0.11.

In the case of ATGCAGTC, the “PBM E-score” value came out at 0.353.

Turning to ACAACAAT, the “PBM E-score” value came out at 0.0493.

Regarding AATAAAGG, the “PBM E-score” value was -0.0751.

TGAGTTAA: the “PBM E-score” value amounted to 0.255.

For the sequence AGCTCCTG, the “PBM E-score” value was -0.136.

On to AGAAGCCG, for which the “PBM E-score” value was -0.309.

For AGGGCACC, the “PBM E-score” value was -0.29.

Turning to CCCAAGAG, the “PBM E-score” value was -0.22.

For AGCGACTC, the “PBM E-score” value amounted to 0.412.

In the case of GTGGTGTA, the “PBM E-score” value stood at 0.0407.

Consider GCTAGTCA, for which the “PBM E-score” value came out at 0.448.

Consider GGTGAAAA, for which the “PBM E-score” value is -0.106.

With CGCAGAGA, the “PBM E-score” value was determined as 0.0744.

For AATAAATA, the “PBM E-score” value was found to be 0.134.

As to CCGACGTC, the “PBM E-score” value is -0.00888.

Regarding TAGAGATA, the “PBM E-score” value is -0.0157.

Take CATACTAA: the “PBM E-score” value worked out at 0.13.

In the case of CTGGGCAC, the “PBM E-score” value was -0.357.

Take CTATTCTC: the “PBM E-score” value was -0.0442.

For ACTGATAA, the “PBM E-score” value amounted to 0.273.

For the sequence ACTCCTCT, the “PBM E-score” value amounted to 0.0906.

Consider ATCTGTCC, for which the “PBM E-score” value was -0.0579.

For the sequence AAGGAAAT, the “PBM E-score” value is -0.0411.

CGGCTTAC: the “PBM E-score” value is -0.147.

Take GTGCCGAA: the “PBM E-score” value is -0.243.

With AGGCAGGA, the “PBM E-score” value is -0.176.

With CGCAGCAG, the “PBM E-score” value is -0.14.

As to AGTTGTAC, the “PBM E-score” value amounted to 0.0368.

Take CGAGAGTC: the “PBM E-score” value stood at 0.421.

In the case of AAGAACAG, the “PBM E-score” value is -0.0508.

CCATGGAG: the “PBM E-score” value worked out at 0.0468.

Consider CAAAGAAG, for which the “PBM E-score” value turned out to be 0.0417.

Turning to GACAGCAC, the “PBM E-score” value was -0.013.

Regarding AGCGGGTC, the “PBM E-score” value is -0.0869.

Take GACAGAAA: the “PBM E-score” value was 0.147.

For CTCACGAA, the “PBM E-score” value is 0.148.

Regarding AGGAGGGG, the “PBM E-score” value was -0.0612.

As for GCACATTA, the “PBM E-score” value was -0.122.

As to AACTCGCA, the “PBM E-score” value is 0.0388.

As to AAATTGAA, the “PBM E-score” value was found to be 0.139.

Regarding AAGAGAAC, the “PBM E-score” value was -0.0303.

Take CCTAGCCA: the “PBM E-score” value is -0.0871.

Regarding ATATGGGA, the “PBM E-score” value is -0.0175.

GATACTCC: the “PBM E-score” value is -0.147.

Turning to AGCGAATC, the “PBM E-score” value worked out at 0.219.

On to CAGTATAA, for which the “PBM E-score” value is -0.0651.

As to AAACAGTC, the “PBM E-score” value amounted to 0.333.

Turning to GCCTAGAC, the “PBM E-score” value is -0.121.

In the case of CGAGTCGA, the “PBM E-score” value is 0.271.

In the case of TCGTTTCA, the “PBM E-score” value stood at 0.158.

As to ACATTGCC, the “PBM E-score” value was -0.0958.

On to CGGGAGAG, for which the “PBM E-score” value was -0.064.

As to GATACCAA, the “PBM E-score” value is -0.154.

As for CTTGACGA, the “PBM E-score” value stood at 0.00106.

As to CATCGCGC, the “PBM E-score” value was 0.118.
